Measured values from paper PMC11589570, “Critical assessment of LC3/GABARAP ligands used for degrader development and ligandability of LC3/GABARAP binding pockets” (Nature Communications, 2024).

Assays:
Type in all cases: binding
[1] = molecular target: T1, LC3A (Homo sapiens, UniProt Q9H492); test: Spectral shift assay (Dianthus), cysteine-labelled protein; settings: Repeat 1 and Repeat 2
Protocol: Affinity determination using spectral shift mode on Dianthus: To determine dissociation constants, the Dianthus instrument (NanoTemper Technologies GmbH, Germany) was used to monitor molecular interactions. […] Protein was labelled with RED-maleimide 2nd Generation (cat# MO-L014; NanoTemper Technologies GmbH). Labeling was carried out following the manufacturer protocol, using a 3:1 ratio dye:protein. […] Protein was purified in 30 mM HEPES, 100 mM NaCl, 0.05% Tween, pH 7.5. […] Measurements were performed in spectral shift mode with an LED excitation power of 100%. Data were analyzed using the DI.Screening Analysis Software (v.2.0.4) (NanoTemper Technologies GmbH, Germany) and quality criteria values including Δ Ratio, Signal-to-Noise-Ratio, Fit Saturation and KD values were determined.

[2] = molecular target: LC3C (Homo sapiens, UniProt Q9BXW4); test: FP assay with Cy5-labelled p62 LIR tracer (protein titration and tracer displacement); settings: two replicate columns per compound
[3] = molecular target: GABARAPL1 (Homo sapiens, UniProt Q9H0R8); test: as above; settings: two replicate columns per compound
[4] = molecular target: T1, LC3A; test: as above; settings: two replicate columns per compound
[5] = molecular target: LC3B (Homo sapiens, UniProt Q9GZQ8); test: as above; settings: two replicate columns per compound
[6] = compound 15.2588 nM titrated against LC3A
[7] = compound 30.5176 nM titrated against LC3A
[8] = compound 61.0352 nM titrated against LC3A
[9] = compound 122.07 nM titrated against LC3A
[10] = compound 244.141 nM titrated against LC3A
[11] = compound 488.281 nM titrated against LC3A
[12] = compound 976.562 nM titrated against LC3A
[13] = compound 1953.12 nM titrated against LC3A
[14] = compound 3906.25 nM titrated against LC3A
[15] = compound 7812.5 nM titrated against LC3A
[16] = compound 15625 nM titrated against LC3A
[17] = compound 31250 nM titrated against LC3A
[18] = compound 62500 nM titrated against LC3A
[19] = compound 125000 nM titrated against LC3A
[20] = compound 250000 nM titrated against LC3A
[21] = compound 500000 nM titrated against LC3A
[22] = log10 concentration [M] -3.82391
[23] = log10 concentration [M] -4.1549
[24] = log10 concentration [M] -4.60206
[25] = log10 concentration [M] -5.30103
[26] = log10 concentration [M] -5.69897
[27] = log10 concentration [M] -6.22185
[28] = log10 concentration [M] -6.69897
[29] = log10 concentration [M] -7.30103
[30] = log10 concentration [M] -7.79588
[31] = log10 concentration [M] -8.08092

GABARAPL1, sequence (Q9H0R8 whole entry): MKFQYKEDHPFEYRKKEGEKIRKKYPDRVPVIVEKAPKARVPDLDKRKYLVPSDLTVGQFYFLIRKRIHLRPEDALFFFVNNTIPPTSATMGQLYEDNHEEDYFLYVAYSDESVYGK
LC3C, sequence (Q9BXW4 1-126): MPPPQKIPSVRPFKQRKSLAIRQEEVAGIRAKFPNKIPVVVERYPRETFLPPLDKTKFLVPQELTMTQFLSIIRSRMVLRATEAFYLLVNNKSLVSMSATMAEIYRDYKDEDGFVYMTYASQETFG

## O=C1CC(c2ccc(Cl)c(Cl)c2)CC(=O)C1=CNCCN1CCNCC1 (stereo not drawn) [Cov-3 (7)]
[1]; [6]
  Initial Fluorescence: 10979.177 and 9319.116
  Ratio (spectral shift): 0.9042 and 0.9182
[1]; [7]
  Initial Fluorescence: 11396.190 and 9959.509
  Ratio (spectral shift): 0.9112 and 0.9028
[1]; [8]
  Initial Fluorescence: 11631.822 and 10445.170
  Ratio (spectral shift): 0.9016 and 0.9158
[1]; [9]
  Initial Fluorescence: 11488.392 and 10144.638
  Ratio (spectral shift): 0.8957 and 0.9295
[1]; [10]
  Initial Fluorescence: 11928.102 and 11029.462
  Ratio (spectral shift): 0.8991 and 0.9219
[1]; [11]
  Initial Fluorescence: 11722.134 and 10040.412
  Ratio (spectral shift): 0.8923 and 0.9025
[1]; [12]
  Initial Fluorescence: 12214.168 and 10715.957
  Ratio (spectral shift): 0.8883 and 0.9059
[1]; [13]
  Initial Fluorescence: 12022.579 and 10824.652
  Ratio (spectral shift): 0.8861 and 0.9018
[1]; [14]
  Initial Fluorescence: 12371.707 and 12043.845
  Ratio (spectral shift): 0.8871 and 0.8914
[1]; [15]
  Initial Fluorescence: 11958.680 and 12575.001
  Ratio (spectral shift): 0.8876 and 0.8953
[1]; [16]
  Initial Fluorescence: 13372.464 and 11099.815
  Ratio (spectral shift): 0.8745 and 0.8787
[1]; [17]
  Initial Fluorescence: 12231.151 and 11520.212
  Ratio (spectral shift): 0.8882 and 0.8762
[1]; [18]
  Initial Fluorescence: 12678.003 and 12242.451
  Ratio (spectral shift): 0.869 and 0.8661
[1]; [19]
  Initial Fluorescence: 12083.175 and 12172.338
  Ratio (spectral shift): 0.865 and 0.8622
[1]; [20]
  Initial Fluorescence: 12437.239 and 12220.100
  Ratio (spectral shift): 0.8569 and 0.8648
[1]; [21]
  Initial Fluorescence: 13363.896 and 12184.344
  Ratio (spectral shift): 0.865 and 0.8788

## Cc1ccc(C)c(S(=O)(=O)Nc2cc(SCC(=O)O)c(O)c3ccccc23)c1 [compound 8]
[2]; [22]
  compound titration LC3C (displacement curve, FP signal): 20 and 19.8
[2]; [23]
  compound titration LC3C (displacement curve, FP signal): 84.2 and 91.2
[2]; [24]
  compound titration LC3C (displacement curve, FP signal): 92 and 99.6
[2]; log10 concentration [M] -5
  compound titration LC3C (displacement curve, FP signal): 93.8 and 99.2
[2]; [25]
  compound titration LC3C (displacement curve, FP signal): 94.2 and 97.8
[2]; [26]
  compound titration LC3C (displacement curve, FP signal): 88.2 and 89.8
[2]; [27]
  compound titration LC3C (displacement curve, FP signal): 94.6 and 93.4
[2]; [28]
  compound titration LC3C (displacement curve, FP signal): 92.8 and 96.4
[2]; [29]
  compound titration LC3C (displacement curve, FP signal): 100.4 and 98.2
[2]; [30]
  compound titration LC3C (displacement curve, FP signal): 91.2 and 94.2
[3]; [22]
  compound titration GABARAPL1 (displacement curve, FP signal): 15.1429 and 17.8571
[3]; [23]
  compound titration GABARAPL1 (displacement curve, FP signal): 76.1429 and 73.7143
[3]; [24]
  compound titration GABARAPL1 (displacement curve, FP signal): 94.7143 and 100
[3]; log10 concentration [M] -5
  compound titration GABARAPL1 (displacement curve, FP signal): 98.8571 and 99.1429

## CC(C)c1ccc(S(=O)(=O)Nc2cc(SCC(=O)O)c(O)c3ccccc23)cc1 [compound 9]
[4]; [22]
  compound titration LC3A (displacement curve, FP signal): 77.1053 and 92.8947
[4]; [23]
  compound titration LC3A (displacement curve, FP signal): 90 and 97.6316
[4]; [24]
  compound titration LC3A (displacement curve, FP signal): 90.2632 and 101.316
[4]; log10 concentration [M] -5
  compound titration LC3A (displacement curve, FP signal): 93.9474 and 102.105
[4]; [25]
  compound titration LC3A (displacement curve, FP signal): 96.5789 and 101.316
[4]; [26]
  compound titration LC3A (displacement curve, FP signal): 95.2632 and 96.0526
[4]; [27]
  compound titration LC3A (displacement curve, FP signal): 94.4737 and 102.632
[4]; [28]
  compound titration LC3A (displacement curve, FP signal): 97.8947 and 102.105
[4]; [29]
  compound titration LC3A (displacement curve, FP signal): 104.737 and 100.526
[4]; [30]
  compound titration LC3A (displacement curve, FP signal): 103.947 and 95.7895
[4]; [31]
  compound titration LC3A (displacement curve, FP signal): 98.6842 and 102.368
[5]; [22]
  compound titration LC3B (displacement curve, FP signal): 61.3158 and 76.8421
[5]; [23]
  compound titration LC3B (displacement curve, FP signal): 89.2105 and 97.1053
[5]; [24]
  compound titration LC3B (displacement curve, FP signal): 94.4737 and 99.2105
[5]; log10 concentration [M] -5
  compound titration LC3B (displacement curve, FP signal): 99.2105 and 100.263
[5]; [25]
  compound titration LC3B (displacement curve, FP signal): 98.1579 and 96.3158
[5]; [26]
  compound titration LC3B (displacement curve, FP signal): 92.8947 and 95
[5]; [27]
  compound titration LC3B (displacement curve, FP signal): 96.8421 and 97.3684
[5]; [28]
  compound titration LC3B (displacement curve, FP signal): 100.789 and 95.2632
[5]; [29]
  compound titration LC3B (displacement curve, FP signal): 94.7368 and 102.368
[5]; [30]
  compound titration LC3B (displacement curve, FP signal): 98.6842 and 95.5263
[5]; [31]
  compound titration LC3B (displacement curve, FP signal): 94.2105 and 97.1053
[2]; [22]
  compound titration LC3C (displacement curve, FP signal): 17.2 and 19.2
[2]; [23]
  compound titration LC3C (displacement curve, FP signal): 66.8 and 75.6
[2]; [24]
  compound titration LC3C (displacement curve, FP signal): 93.2 and 97.2
[2]; log10 concentration [M] -5
  compound titration LC3C (displacement curve, FP signal): 92 and 97.2
[2]; [25]
  compound titration LC3C (displacement curve, FP signal): 94.2 and 98
[2]; [26]
  compound titration LC3C (displacement curve, FP signal): 86.2 and 91.6
[2]; [27]
  compound titration LC3C (displacement curve, FP signal): 95 and 94.2
[2]; [28]
  compound titration LC3C (displacement curve, FP signal): 98.6
[2]; [29]
  compound titration LC3C (displacement curve, FP signal): 94.8 and 94.4
[3]; [22]
  compound titration GABARAPL1 (displacement curve, FP signal): 18.1429 and 16.1429
[3]; [23]
  compound titration GABARAPL1 (displacement curve, FP signal): 51.7143 and 57.5714
[3]; [24]
  compound titration GABARAPL1 (displacement curve, FP signal): 95.1429 and 101.571
[3]; log10 concentration [M] -5
  compound titration GABARAPL1 (displacement curve, FP signal): 95.5714 and 98.8571

Where “and” joins values, the source holds several entries; their conditions need not be identical. Equal values may be shown once.
